In the supplement of paper PMC4166925:
± gives the standard deviation of the averaged measurements. The full ranking holds about 33,000 sequences; the median of “E-score (dimensionless, -0.5 to 0.5)” is about -0.046, and the highest 2% start at about 0.36. Some of the results follow.

Test system: T1, SpTbr T-box DNA-binding domain (GST fusion)
T1 sequence: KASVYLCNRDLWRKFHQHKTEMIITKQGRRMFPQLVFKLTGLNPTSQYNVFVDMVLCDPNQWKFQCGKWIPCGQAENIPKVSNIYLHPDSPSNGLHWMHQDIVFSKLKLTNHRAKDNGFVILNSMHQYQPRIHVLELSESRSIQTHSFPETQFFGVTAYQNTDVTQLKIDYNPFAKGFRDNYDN
Test: PBM E-score of 8-mer (E-score (dimensionless, -0.5 to 0.5)); Tbr is Tbrain of the sea star Patiria miniata (Pm) or the sea urchin Strongylocentrotus purpuratus (Sp); higher = stronger binding preference; most listed sequences are background and not binding sites
Details: the construct has about 5 more residues each side
Protocol: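 Universal protein-binding microarray (Agilent AMADID 016060, 60-bp probes with a 35-bp variable region) incubated with 200 nM GST-fused Strongylocentrotus purpuratus Tbr T-box DNA-binding domain (residues 362-554) in PBS pH 7.5. Scored for every ungapped 8-mer (given with its reverse complement) as E-score (range -0.5 to 0.5; >0.45 counts as bound) and Z-score of median probe intensity. Two replicate arrays (datasets 1 and 2).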
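Further: protein at 200 nM in PBS on universal double-stranded arrays.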

Sequence | PBM E-score of 8-mer
ACGGCTAA | -0.192 ± 0.021
GCAGTCGA | -0.114 ± 0.0086
AACAGTGC | 0.0556 ± 0.0074
GAGACAAA | -0.0684 ± 0.007
CTTAATAA | -0.355 ± 0.044
CACGAGTG | 0.229 ± 0.0061
GAAATAAC | 0.18 ± 0.049
ACAGAAAG | -0.119 ± 0.026
AGAGTGTC | 0.359 ± 0.0099
ATATGCAT | -0.167 ± 0.13
CAGGTCCC | -0.11 ± 0.016
AGCACATG | 0.0968 ± 0.0055
GTATAGTA | -0.103 ± 0.013
CTCAAAGA | -0.222 ± 0.093
AATCTCGT | -0.0158 ± 0.029
CCTCACAA | 0.233 ± 0.0063
TAAAAATA | 0.0384 ± 0.033
ATGAAGTA | -0.246 ± 0.031
AGTTCAGC | -0.0991 ± 0.041
CGATTGGA | -0.213 ± 0.091
GTCGTCAA | 0.271 ± 0.01
GAATATAC | -0.146 ± 0.013
AACAACAG | -0.00624 ± 0.0057
CAAGGACA | -0.0588 ± 0.033
ACTATAAA | -0.112 ± 0.081

Sequence | PBM E-score of 8-mer
GGGCACTA | -0.145 ± 0.036
ATATCTTG | -0.076 ± 0.03
AATCGACG | 0.0974 ± 0.066
CTGGTAGC | 0.0561 ± 0.069
CATAGTCG | 0.0887 ± 0.043
CGTATTGA | -0.0911 ± 0.063
AAGAATGC | -0.174 ± 0.03
ACCCTCCG | -0.0714 ± 0.011
ACCGGACG | -0.132 ± 0.0078
AGCGCTTG | 0.0663 ± 0.013
GTGGTAAC | 0.207 ± 0.0039
CGTCAAAA | 0.277 ± 0.013
ATATGGAA | -0.196 ± 0.053
ACGACTAC | 0.0174 ± 0.024
GCTGTGAC | 0.161 ± 0.042
TCTGTTCA | 0.0551 ± 0.0088
CTATAGGA | -0.1 ± 0.061
ATCCTCCA | 0.0475 ± 0.013
CAACAGTG | 0.15 ± 0.0071
ACACCCCA | 0.376 ± 0.013
CGATTGAG | -0.221 ± 0.044
ACTATGAG | -0.24 ± 0.033
GAATTATA | -0.111 ± 0.073
CTACTACA | -0.245 ± 0.014
AATGTCGA | 0.049 ± 0.071

Sequence | PBM E-score of 8-mer
GGAAGAAC | -0.143 ± 0.018
CGACGACA | 0.171 ± 0.11
AGGAGTCA | 0.0241 ± 0.025
CGTTCGAG | -0.0941 ± 0.013
ACCACGGC | -0.0173 ± 0.051
CAATTGTC | 0.223 ± 0.055
ACACTACG | 0.3 ± 0.0087
GACTTATA | 0.0117 ± 0.031
GCATTGTA | -0.043 ± 0.039
ATCTCGGA | -0.276 ± 0.03
AGTGTCGA | 0.405 ± 0.0049
CGGGCTTC | -0.125 ± 0.019
ACAGGAAC | -0.071 ± 0.018
TTCATAAA | -0.055 ± 0.0017
GGCGACGA | 0.232 ± 0.0069
AAATGCGA | -0.00257 ± 0.063
ACGTGGCA | 0.251 ± 0.029
CCGCCTCG | -0.0478 ± 0.058
ACCCACGG | -0.121 ± 0.0078
AGGTTGTA | 0.107 ± 0.053
CCTCCAAC | -0.056 ± 0.066
ACGATATA | -0.13 ± 0.0043
CACAGAAG | 0.116 ± 0.014
TCATCCGA | -0.0874 ± 0.12
TAGCAGCA | 0.0493 ± 0.088

Sequence | PBM E-score of 8-mer
CCGACGCG | 0.148 ± 0.077
ACATGCTC | -0.0375 ± 0.058
TAATGGGA | -0.0365 ± 0.045
ATATAAGC | -0.193 ± 0.077
CCGTGCCA | 0.147 ± 0.025
CACGAAAC | 0.176 ± 0.055
GGCAAAAC | 0.0487 ± 0.0086
GCAATACC | -0.0236 ± 0.082
GCGACCTA | 0.0146 ± 0.002
AGGACAAC | -0.224 ± 0.031
CCTAAGCG | -0.0819 ± 0.022
GCTGGTGA | 0.103 ± 0.087
ATAAAAGG | -0.00138 ± 0.13
GAAATTTA | -0.17 ± 0.12
GGAAAGAC | -0.0417 ± 0.04
AGTCCAAG | -0.396 ± 0.015
TCTATTAA | -0.0316 ± 0.07
CCGTCATC | 0.028 ± 0.045
ATGATTCA | -0.139 ± 0.042
AGATTAGA | -0.263 ± 0.014
GAGCTGCA | 0.0629 ± 0.08
AAGTTCGT | -0.0544 ± 0.0035
ATGACCTA | -0.132 ± 0.046
CGCGCCCC | 0.186 ± 0.033
ACTAATCT | -0.0913 ± 0.065

Sequence | PBM E-score of 8-mer
AGGCTGGA | -0.0423 ± 0.056
CATCCGCC | -0.0962 ± 0.054
ACACGATC | 0.21 ± 0.055
CTTTATAC | -0.145 ± 0.054
ACAAGTAA | 0.0434 ± 0.023
CGCCAGAC | 0.0647 ± 0.033
CAGACTCC | -0.201 ± 0.021
GAATACCC | -0.0688 ± 0.056
GCCGGAGA | -0.0821 ± 0.065
CTGCGCTA | -0.02 ± 0.019
CCATGACG | -0.213 ± 0.026
AGACGAGC | -0.248 ± 0.016
GCCTCCAA | -0.136 ± 0.0096
TACGAGAA | -0.0475 ± 0.029
CCGCATCG | -0.0523 ± 0.1
TCGCGAAA | 0.403 ± 0.026
TGAAATAA | 0.0629 ± 0.071
CTAAAATC | -0.0092 ± 0.037
GCTTTTAA | -0.1 ± 0.031
AACAGGAG | -0.00974 ± 0.02
CGCGTGAC | 0.355 ± 0.02
GTGGTACA | -0.0977 ± 0.016
ACCGCTTG | 0.0927 ± 0.016
CAACGGGA | -0.118 ± 0.12
CGACATCC | 0.0466 ± 0.024

Sequence | PBM E-score of 8-mer
ACGTTCTA | -0.115 ± 0.021
AAGGCAAA | -0.182 ± 0.027
AGATTTCC | -0.118 ± 0.024
CTGGTCTA | -0.111 ± 0.014
GCCGACTA | -0.0661 ± 0.027
AGTAGAAT | -0.219 ± 0.017
CTCCGCAA | -0.185 ± 0.095
AGAAGATA | -0.171 ± 0.078
CGTTTATA | -0.295 ± 0.032
CCATTAAA | -0.212 ± 0.065
CACTGGCC | -0.159 ± 0.077
CCTCGAGG | 0.00849 ± 0.019
CTTCCGGC | -0.0641 ± 0.0021
CGATACTA | -0.0248 ± 0.015
AGCTTCGG | -0.218 ± 0.022
ATGATTGC | -0.169 ± 0.038
CACTATCG | 0.164 ± 0.015
TGATGGCA | 0.067 ± 0.053
CATCTGAG | -0.142 ± 0.031
AGGGGTGC | 0.222 ± 0.042
GATAAGCA | -0.0139 ± 0.028
ACGCAGCA | -0.0519 ± 0.11
AGGCACAC | 0.227 ± 0.022
ACGTGACC | 0.135 ± 0.082
GTGAGAGA | 0.339 ± 0.0054

Sequence | PBM E-score of 8-mer
GAATCGGC | -0.089 ± 0.0017
CAAAGACC | -0.203 ± 0.007
CACCCATA | 0.113 ± 0.015
GATGGACA | -0.153 ± 0.011
CCAGGTTA | -0.17 ± 0.14
GTTCAAAA | -0.166 ± 0.031
ACCCTGAG | 0.0258 ± 0.022
GACGCACA | 0.0977 ± 0.036
ATAACTAG | -0.0803 ± 0.047
CTATGATC | -0.192 ± 0.0053
ACACCTCA | 0.4607 ± 0.0039
ACCGGCTC | -0.0962 ± 0.049
ACTCTCGG | -0.123 ± 0.051
TCCGAAAA | -0.0102 ± 0.087
CGGAAGAG | 0.0304 ± 0.035
GGATATGA | -0.15 ± 0.011
ACAAACTC | 0.149 ± 0.049
AAAAATAC | -0.0542 ± 0.049
ACCTACGG | -0.131 ± 0.025
CTCTCGAA | -0.00998 ± 0.018
GTGAACTA | 0.255 ± 0.011
AAGTCGGA | -0.304 ± 0.031
AATCAGAT | -0.0488 ± 0.017
TGCCGCCA | 0.207 ± 0.036
GAAGGAAC | -0.167 ± 0.056

Sequence | PBM E-score of 8-mer
CGTATACG | -0.0206 ± 0.13
AACTAGAC | -0.215 ± 0.091
AGCTCGAG | -0.16 ± 0.09
GAATTTCC | -0.0405 ± 0.041
ATCAGGCC | -0.367 ± 0.035
GAGCGCAC | -0.05899 ± 0.00038
GTCATATA | -0.0155 ± 0.092
CAGAGGCG | 0.135 ± 0.058
AAGTGAAT | 0.0133 ± 0.0032
CAGTCTTC | -0.157 ± 0.048
TAGTTACA | -0.0656 ± 0.014
CACCCGGC | 0.101 ± 0.022
GTCCGGAC | -0.165 ± 0.059
CTCGCCAG | 0.00081 ± 0.048
GTTCCAAC | -0.1 ± 0.087
ACTCGCTG | 0.138 ± 0.064
ACCTCAGG | 0.0227 ± 0.008
ACCAATCG | 0.0341 ± 0.021
AGAATGAC | 0.0493 ± 0.042
CACTCGAA | 0.205 ± 0.011
CTCTACCA | -0.11 ± 0.036
AGTAGTGA | 0.109 ± 0.059
AGAGGGAT | -0.144 ± 0.12
AGGGAGGG | -0.224 ± 0.039
GGCTATCA | -0.0415 ± 0.069

Sequence | PBM E-score of 8-mer
GCGGACAA | -0.133 ± 0.06
AAGAGTTG | -0.00626 ± 0.028
AGTATGCA | -0.0433 ± 0.0085
AGTAGCGA | 0.188 ± 0.0035
AGTCCGGA | -0.0864 ± 0.026
CCAATAAA | -0.104 ± 0.012
GACCTGTA | -0.133 ± 0.054
CTGGTTGA | -0.0222 ± 0.079
GGAAGCTA | -0.168 ± 0.018
CGGTATGC | -0.18 ± 0.0084
ACGGCATG | -0.0835 ± 0.0075
AGACACAG | -0.0147 ± 0.027
CACCACGA | -0.0413 ± 0.025
CAGTATGA | -0.16614 ± 7.8e-05
AAAATAAT | -0.135 ± 0.11
AAAAGAAC | -0.147 ± 0.019
CTCGATAA | 0.1127 ± 0.00061
CCCCGTCG | -0.0445 ± 0.094
AGACACAT | 0.229 ± 0.0028
